According to publication PMC8565811:
These are yes or no findings as the source states them, for the method shown. For some of these results: Binding seen in cells or lysates may run through a third protein. Some binding calls cover weakened binding; strength is not graded here. For some of these results: Where a sequence is shown, tags or fusion partners need not be part of it.

Chains of the proteins cited; added tags and fusions are not shown. Lines headed by an entry give the natural chain unless they say otherwise; changes in a name come on top.
UniProt Q9AJW7: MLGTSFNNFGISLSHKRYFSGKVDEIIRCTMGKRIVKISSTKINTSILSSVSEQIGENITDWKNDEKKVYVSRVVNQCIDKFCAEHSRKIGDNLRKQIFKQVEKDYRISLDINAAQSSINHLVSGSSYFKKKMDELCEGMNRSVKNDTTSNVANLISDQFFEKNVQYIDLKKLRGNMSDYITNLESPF
UniProt Q92556: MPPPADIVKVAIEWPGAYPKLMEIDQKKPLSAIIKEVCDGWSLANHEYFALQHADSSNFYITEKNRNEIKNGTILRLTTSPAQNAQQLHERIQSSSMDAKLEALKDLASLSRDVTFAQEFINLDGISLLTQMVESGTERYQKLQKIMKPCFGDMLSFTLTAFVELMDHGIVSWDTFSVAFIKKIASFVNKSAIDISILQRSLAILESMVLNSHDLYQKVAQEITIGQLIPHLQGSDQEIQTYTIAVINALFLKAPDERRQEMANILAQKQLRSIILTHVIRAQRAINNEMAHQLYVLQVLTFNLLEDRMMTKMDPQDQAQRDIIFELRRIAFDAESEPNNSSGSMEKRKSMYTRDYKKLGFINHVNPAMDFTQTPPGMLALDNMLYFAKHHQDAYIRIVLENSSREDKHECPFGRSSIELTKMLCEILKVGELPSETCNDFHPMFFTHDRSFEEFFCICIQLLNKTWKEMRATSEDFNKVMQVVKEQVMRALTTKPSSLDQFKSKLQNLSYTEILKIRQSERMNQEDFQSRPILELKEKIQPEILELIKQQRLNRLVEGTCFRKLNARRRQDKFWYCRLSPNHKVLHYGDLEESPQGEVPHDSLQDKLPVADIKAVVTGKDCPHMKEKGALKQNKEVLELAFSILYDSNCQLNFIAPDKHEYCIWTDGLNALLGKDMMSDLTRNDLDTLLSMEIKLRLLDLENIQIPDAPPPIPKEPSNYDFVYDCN
UniProt Q8BPU7: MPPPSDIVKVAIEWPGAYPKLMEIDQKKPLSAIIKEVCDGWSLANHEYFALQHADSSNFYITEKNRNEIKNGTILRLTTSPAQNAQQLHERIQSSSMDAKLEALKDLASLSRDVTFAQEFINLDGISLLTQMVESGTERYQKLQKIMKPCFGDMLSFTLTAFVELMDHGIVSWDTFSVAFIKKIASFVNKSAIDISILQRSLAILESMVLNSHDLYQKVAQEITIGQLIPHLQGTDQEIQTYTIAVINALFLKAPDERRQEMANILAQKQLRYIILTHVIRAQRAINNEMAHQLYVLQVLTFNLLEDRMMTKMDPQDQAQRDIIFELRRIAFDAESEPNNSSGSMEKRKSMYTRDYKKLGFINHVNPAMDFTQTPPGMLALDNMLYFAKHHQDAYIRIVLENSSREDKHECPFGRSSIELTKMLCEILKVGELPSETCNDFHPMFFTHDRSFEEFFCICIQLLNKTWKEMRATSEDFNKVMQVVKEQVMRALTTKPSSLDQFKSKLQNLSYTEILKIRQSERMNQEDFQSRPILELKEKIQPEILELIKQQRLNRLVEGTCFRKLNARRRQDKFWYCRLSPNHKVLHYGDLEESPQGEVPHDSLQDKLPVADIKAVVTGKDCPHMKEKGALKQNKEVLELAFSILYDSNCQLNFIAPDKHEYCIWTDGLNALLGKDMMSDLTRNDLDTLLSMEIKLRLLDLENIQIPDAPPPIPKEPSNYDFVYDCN

Experiments:
GST-SifA (Salmonella) [1] = biological target: T1, GST-SifA (Salmonella) (UniProt Q56061); experiment: pull-down; GST-SifA immobilised on glutathione-Sepharose beads, incubated with lysates of HEK293 cells transfected with FLAG-ELMO1 FL, NT or CT; blot with anti-FLAG; only the target purified
T1 sequence: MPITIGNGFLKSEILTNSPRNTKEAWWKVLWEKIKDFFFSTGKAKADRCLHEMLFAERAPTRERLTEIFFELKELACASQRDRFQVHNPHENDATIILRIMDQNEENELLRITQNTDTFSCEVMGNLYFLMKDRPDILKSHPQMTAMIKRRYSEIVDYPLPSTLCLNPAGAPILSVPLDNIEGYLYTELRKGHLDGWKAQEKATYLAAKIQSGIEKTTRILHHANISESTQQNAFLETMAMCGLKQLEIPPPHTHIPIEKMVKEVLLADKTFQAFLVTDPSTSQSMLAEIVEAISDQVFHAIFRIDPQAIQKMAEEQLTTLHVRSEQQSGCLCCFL

[2] = biological target: T2, EGFP-SifA wild type (Salmonella) (UniProt Q56061); experiment: co-IP; HEK293 co-transfected with EGFP-SifA (WT or E201A) and FLAG-ELMO1; lysates precipitated with EGFP-conjugated beads; blot with anti-FLAG
T2 sequence: T1 sequence

GST-IpgB2 (Shigella) = GST-IpgB2 (Shigella) (UniProt Q9AJW7); experiment: pull-down; GST, GST-IpgB1, GST-IpgB2 or GST-Map immobilised on glutathione-Sepharose beads, incubated with purified recombinant His-ELMO1 full length; bound ELMO1-FL seen by immunoblot; both purified
GST-SifA (Salmonella) [3] = biological target: T1, GST-SifA (Salmonella); experiment: pull-down; GST-SifA immobilised on glutathione-Sepharose beads, incubated overnight at 4°C with lysates of J774 control or ELMO1 shRNA cells or of BMDM; washed with NETN buffer (300 mM NaCl); blot with anti-ELMO1; only the target purified
GST-ELMO1 = GST-ELMO1 (UniProt Q92556); experiment: pull-down; GST-ELMO1 or GST alone immobilised on glutathione-Sepharose beads, incubated overnight at 4°C with purified His-SifA WT or E201A; GST wash buffer (100 mM NaCl); blot with anti-His; both purified

FLAG tagged ELMO1- N terminal (NT) (aa-1-532) (from UniProt Q92556 1-532) (domain or fragment)
binding (GST-SifA (Salmonella) [1]): no binding

FLAG tagged ELMO1-full length (FL) (aa 1-727) (from UniProt Q92556 1-727)
binding [2]: binds
binding (GST-SifA (Salmonella) [1]): binds

FLAG tagged ELMO-1- C terminal (CT) (aa-532-727) (from UniProt Q92556 532-727) (domain or fragment)
binding (GST-SifA (Salmonella) [1]): binds

Recombinant His-ELMO1-full length (FL) (from UniProt Q92556 1-727)
binding (GST-IpgB2 (Shigella)): binds

endogenous ELMO1 of murine macrophages (from UniProt Q8BPU7 1-727)
binding (GST-SifA (Salmonella) [3]): binds

B1: His-SifA WT (protein, UniProt Q56061 1-336)
chain: T1 sequence
binding (GST-ELMO1): binds
